Consider 30 compounds from PubChem BioAssay (NCATS).

By AC50 is commonly meant the midpoint of the concentration-response curve, whichever way the signal moves.

Molecules are shown by their SMILES. The list shows a part of the results. The main result of the screen is listed elsewhere. These columns were measured beside it and carry no call. The list favours compounds with an active or inconclusive main result. The note in brackets gives the kind of curve behind each potency; many fits are weak.
Tags give direction and shape of the fitted curve.

The first assay is described as follows: qHTS Assay for Lipid Storage Modulators (AID 1519). The conditions noted are these: Drosophila S3 cells, BODIPY lipid droplet/cell ratio, laser cytometry; measured here: cell number channel AC50; cells loaded with oleic acid. The method, boiled down: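 Cells seeded at 5,000 per well were treated with compounds over a concentration series and loaded with oleic acid (400 uM, as added). Lipid droplet fluorescence (488 nm excitation, 500-530 nm channel) was read by laser-scanning cytometry and normalized to 20 uM Triacsin C.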
`CN1CCN(c2ncc3nc(-c4ccccc4)c(=O)n(Cc4cccs4)c3n2)CC1`: the AC50 was 10000 nM [rising, partial curve].

As for `O=C(c1cc(C(F)(F)F)cc(C(F)(F)F)c1)N1CCC2(CCCN(Cc3ccncc3)C2)CC1`, the AC50 is 7080 nM [rising, single point].

On to `NCCc1cnc[nH]1`, for which the AC50 was 15800 nM [falling, partial curve, poor fit].

As for `COc1ccc2[nH]cc(CCNc3ncncc3-c3ccccc3OC)c2c1`, the AC50 is 2820 nM [rising, partial curve].

`CCCCN1CCC(CCC(=O)c2cc(Cl)c(N)cc2OC)CC1`: the half-maximal activity concentration (AC50) is 15800 nM [rising, partial curve].

Consider `O=C(c1ccncc1)N1CCC[C@@]2(CCN(c3ccccc3)C2)C1`, for which the AC50 was 25100 nM [rising, single point].

`C=CCN1CCc2cc(O)c(O)cc2[C@H](c2ccccc2)C1`: the half-maximal activity concentration (AC50) was 25100 nM [rising, partial curve, poor fit].

`COc1ccc(-n2c(=O)c(C)nc3cnc(Nc4cccc(OC)c4)nc32)cc1`: the AC50 was 2000 nM [rising, partial curve, poor fit].

Consider `COc1ccc2[nH]cc(CCNc3cc(-c4c(C)noc4C)ncn3)c2c1`, for which the AC50 is 794 nM [rising, full curve].

On to `CS(=O)(=O)N1CCC2(CC1)CN(c1ncccn1)C2`, for which the AC50 was 1780 nM [rising, full curve, poor fit].

Staying with this assay, now noted: Drosophila S3 cells, BODIPY lipid droplet/cell ratio, laser cytometry; measured here: lipid (BODIPY) channel AC50; cells loaded with oleic acid.
Take `FC(F)(F)c1ccccc1-c1nc(NC2CC2)c2ccccc2n1`: the AC50 is 2820 nM [rising, partial curve].

For the compound `O=c1c(-c2ccccc2)nc2cncnc2n1C1CC1`, the AC50 was 1120 nM [rising, partial curve, poor fit].

As to `COc1ccc(-c2cc(=O)c3ccc(O)cc3o2)cc1`, the AC50 is 31600 nM [rising, partial curve, poor fit].

Regarding `Cc1noc(C)c1-c1nc(Nc2ccccc2)c2ccccc2n1`, the AC50 was 501 nM [rising, full curve].

For `COc1ccccc1N1CCN(CCCCNC(=O)c2ccc(-c3ccc(C(C)=O)cc3)cc2)CC1`, the half-maximal activity concentration (AC50) was 28200 nM [rising, partial curve, poor fit].

`Cn1c(=O)c(CCc2ccccc2)nc2cncnc21`: the AC50 is 126 nM [rising, full curve].

In the case of `COCCNC(=O)COc1ccc(OCCNC[C@@H](O)COc2ccccc2)cc1`, the AC50 is 39800 nM [rising, single point].

Take `Cc1cccc(CNc2ccnc(-c3ccc(N(C)C)cc3)n2)c1`: the AC50 was 39800 nM [falling, single point].

`Cc1cnc(CNc2nc(-c3cccc(NS(C)(=O)=O)c3)nc3ccccc23)cn1`: the AC50 was 316 nM [rising, full curve].

For `COc1cccc(Cn2c(=O)c(-c3ccc(Cl)cc3)nc3cnc(N4CCN(C)CC4)nc32)c1`, the AC50 is 1780 nM [rising, partial curve].

In the case of `c1cn(-c2cc(-c3ccc4c(c3)OCO4)ncn2)cn1`, the AC50 is 2000 nM [rising, partial curve, poor fit].

As to `CC(=O)Oc1cc(C(C)C)c(OCCN(C)C)cc1C`, the AC50 was 39800 nM [rising, single point].

Take `CS(=O)(=O)Nc1cccc(-c2nccc(NCc3cccs3)n2)c1`: the concentration at half-maximal activity (AC50) was 1410 nM [rising, full curve, poor fit].

For the compound `OC[C@H]1O[C@@H](OC[C@H]2O[C@@H](O)[C@H](O)[C@@H](O)[C@@H]2O)[C@H](O)[C@@H](O)[C@@H]1O`, the AC50 is 15800 nM [rising, single point].

With `COc1ccc2[nH]cc(CCNc3ccnc(-c4c(C)noc4C)n3)c2c1`, the AC50 was 89.1 nM [rising, full curve, poor fit].

In the case of `COc1ncc2nc(-c3cc(F)cc(F)c3)c(=O)n(C[C@H]3CCCO3)c2n1`, the AC50 was 56.2 nM [rising, full curve, poor fit].

Take `Cc1noc(C)c1-c1nc(N2CCN(C)CC2)c2ccccc2n1`: the concentration at half-maximal activity (AC50) was 3160 nM [rising, partial curve, poor fit].

As to `Cc1cnc(CNc2ccnc(-c3cccnc3)n2)cn1`, the AC50 was 2510 nM [rising, full curve, poor fit].

For `CC(=O)OC1CCC2(C)C3CCC4(C)C(CC5CCCCC54C(C)=O)C3CC(=O)[C@@]2(O)C1` (stereo not given in full), the half-maximal activity concentration (AC50) is 28200 nM [rising, partial curve, poor fit].

For `CC(C)(C)c1cc(O)c(C(C)(C)C)cc1O`, the half-maximal activity concentration (AC50) is 12600 nM [rising, partial curve, poor fit].
